Experimental data taken from a collection of fitness landscapes (doi:10.1126/science.1257360).
This is one part of the list.

B1: PhoQ; a variant is named by its letters at X, in order, P23837 (parent)
chain: MKKLLRLFFPLSLRVRFLLATAAVVLVLSLAYGMVALIGYSVSFDKTTFRLLRGESNLFYTLAKWENNKLHVELPENIDKQSPTMTLIYDENGQLLWAQRDVPWLMKMIQPDWLKSNGFHEIEADVNDTSLLLSGDHSIQQQLQEVREDDDDAEMTHSVAVNVYPATSRMPKLTIVVVDTIPVELKSSYMVWSWFIYVLSANLLLVIPLLWVAAWWSLRPIEALAKEVRELEEHNRELLNPATTRELTSLVRNLNRLLKSERERYDKYRTTLTDLTHSLKTPLXXLQXXLRSLRSEKMSVSDAEPVMLEQISRISQQIGYYLHRASMRGGTLLSRELHPVAPLLDNLTSALNKVYQRKGVNISLDISPEISFVGEQNDFVEVMGNVLDNACKYCLEFVEISARQTDEHLYIVVEDDGPGIPLSKREVIFDRGQRVDTLRPGQGVGLAVAREITEQYEGKIVAGESMLGGARMEVIFGRQHSAPKDE

Variants of: B1
Test: enrichment ratio after two sorts for PhoP signalling (ratio (wild type AVST 3.29)); higher = more functional
Details: with PhoP (E. coli)

Row | Variant | enrichment ratio
1 | ECLS | ≤ 0.25
2 | HGQH | ≤ 0.25
3 | RSQN | ≤ 0.25
4 | GLAR | ≤ 0.25
5 | YFYM | ≤ 0.25
6 | STSD | ≤ 0.25
7 | SMTM | 14.9
8 | MECM | 36.6
9 | QYSG | ≤ 0.25
10 | NKAE | ≤ 0.25
11 | KHKL | ≤ 0.25
12 | NQTG | ≤ 0.25
13 | QTSD | ≤ 0.25
14 | FVIW | ≤ 0.25
15 | DCSK | ≤ 0.25
16 | QFPR | ≤ 0.25
17 | IKKA | ≤ 0.25
18 | SDII | 11.7
19 | YEGN | ≤ 0.25
20 | FNLD | ≤ 0.25
21 | VTSF | ≤ 0.25
22 | ETAA | ≤ 0.25
23 | PFGL | ≤ 0.25
24 | SSVF | 7.73

Row | Variant | enrichment ratio
25 | LNKA | ≤ 0.25
26 | QSRP | ≤ 0.25
27 | ITHE | ≤ 0.25
28 | SSVG | 8.46
29 | QENG | ≤ 0.25
30 | CSSV | 0.253
31 | IRWI | ≤ 0.25
32 | LRWM | ≤ 0.25
33 | KNHC | ≤ 0.25
34 | WPMD | ≤ 0.25
35 | SPSG | ≤ 0.25
36 | TYTN | ≤ 0.25
37 | SWYH | ≤ 0.25
38 | DWWP | ≤ 0.25
39 | WSFR | ≤ 0.25
40 | VNRE | ≤ 0.25
41 | LWWM | ≤ 0.25
42 | IAPY | ≤ 0.25
43 | ESTM | ≤ 0.25
44 | YYSD | ≤ 0.25
45 | MFLR | ≤ 0.25
46 | VWIC | ≤ 0.25
47 | VAPS | ≤ 0.25
48 | MTYL | 8.65

Row | Variant | enrichment ratio
49 | SHIC | ≤ 0.25
50 | EDLP | ≤ 0.25
51 | SDYS | ≤ 0.25
52 | MPEH | ≤ 0.25
53 | YKTF | ≤ 0.25
54 | DSIK | ≤ 0.25
55 | STAG | 9.55
56 | RFRR | ≤ 0.25
57 | KVYP | ≤ 0.25
58 | NCYA | ≤ 0.25
59 | PRNY | ≤ 0.25
60 | LTDK | ≤ 0.25
61 | DLWG | ≤ 0.25
62 | LQEY | ≤ 0.25
63 | FAQR | ≤ 0.25
64 | AICM | 6.05
65 | PASH | ≤ 0.25
66 | VYQP | ≤ 0.25
67 | DWRA | ≤ 0.25
68 | RHIG | ≤ 0.25
69 | IDII | ≤ 0.25
70 | LGER | ≤ 0.25
71 | FFME | ≤ 0.25
72 | MFGA | ≤ 0.25

Row | Variant | enrichment ratio
73 | FNQR | ≤ 0.25
74 | GLDK | ≤ 0.25
75 | HAGQ | ≤ 0.25
76 | TPPD | ≤ 0.25
77 | ILYW | ≤ 0.25
78 | PNVV | ≤ 0.25
79 | FTMH | 0.948
80 | DQCP | ≤ 0.25
81 | HYVY | ≤ 0.25
82 | ESPY | ≤ 0.25
83 | WWNV | ≤ 0.25
84 | AVFY | ≤ 0.25
85 | EKNL | ≤ 0.25
86 | SLSC | 5.15
87 | KPSF | ≤ 0.25
88 | DWWY | ≤ 0.25
89 | KDMV | ≤ 0.25
90 | AKCA | ≤ 0.25
91 | VTYL | ≤ 0.25
92 | GQAL | ≤ 0.25
93 | WHFY | ≤ 0.25
94 | TVWL | ≤ 0.25
95 | MQMP | ≤ 0.25
96 | TDQL | ≤ 0.25

Row | Variant | enrichment ratio
97 | YCNW | ≤ 0.25
98 | IQWN | ≤ 0.25
99 | VVMK | ≤ 0.25
100 | PPTA | ≤ 0.25
101 | YLNY | ≤ 0.25
102 | YLKC | ≤ 0.25
103 | YMCQ | 0.274
104 | PILC | ≤ 0.25
105 | YECL | 1.07
106 | YHSP | ≤ 0.25
107 | QTTC | ≤ 0.25
108 | VMID | ≤ 0.25
109 | LADA | ≤ 0.25
110 | NQFS | ≤ 0.25
111 | YHGC | ≤ 0.25
112 | WCFR | ≤ 0.25
113 | GSLT | 9.31
114 | DFTE | ≤ 0.25
115 | HKDF | ≤ 0.25
116 | TWNL | ≤ 0.25
117 | QANI | ≤ 0.25
118 | RGPP | ≤ 0.25
119 | FSYS | ≤ 0.25
120 | AFIG | 1.67

Row | Variant | enrichment ratio
121 | YIHL | ≤ 0.25
122 | LVKP | ≤ 0.25
123 | GWSW | ≤ 0.25
124 | NTCL | ≤ 0.25
125 | DGVT | ≤ 0.25
126 | FTVM | 6.58
127 | IDQI | ≤ 0.25
128 | KHGC | ≤ 0.25
129 | WEKV | ≤ 0.25
130 | YMYM | ≤ 0.25
131 | YSRV | ≤ 0.25
132 | MDRQ | 0.934
133 | YHGT | ≤ 0.25
134 | VCHM | ≤ 0.25
135 | SKVA | 1.14
136 | QDLQ | ≤ 0.25
137 | TAVE | ≤ 0.25
138 | FLNH | ≤ 0.25
139 | VVNY | ≤ 0.25
140 | RKVR | ≤ 0.25
141 | EWLN | ≤ 0.25
142 | QLCP | 0.681
143 | DTKA | ≤ 0.25
144 | LLGK | ≤ 0.25

Row | Variant | enrichment ratio
145 | GPTE | ≤ 0.25
146 | AIMQ | ≤ 0.25
147 | MNQK | ≤ 0.25
148 | METV | 1.22
149 | FVNW | ≤ 0.25
150 | WGRN | ≤ 0.25
151 | FADG | ≤ 0.25
152 | LMYQ | ≤ 0.25
153 | RFKG | ≤ 0.25
154 | YDEY | ≤ 0.25
155 | MCRQ | ≤ 0.25
156 | PWLK | ≤ 0.25
157 | KTET | ≤ 0.25
158 | NCNS | ≤ 0.25
159 | REMI | ≤ 0.25
160 | STEQ | ≤ 0.25
161 | LSKK | ≤ 0.25
162 | RYMS | ≤ 0.25
163 | DNPW | ≤ 0.25
164 | DKVI | ≤ 0.25
165 | LKKA | ≤ 0.25
166 | RDSI | ≤ 0.25
167 | IEPG | ≤ 0.25
168 | WCKY | ≤ 0.25

Row | Variant | enrichment ratio
169 | AEPR | ≤ 0.25
170 | LCAE | ≤ 0.25
171 | NYLF | ≤ 0.25
172 | YLTH | ≤ 0.25
173 | ANWS | ≤ 0.25
174 | IEPP | ≤ 0.25
175 | IVSN | ≤ 0.25
176 | GQQC | ≤ 0.25
177 | VWNG | ≤ 0.25
178 | AEHW | ≤ 0.25
179 | RCAT | ≤ 0.25
180 | VHLD | ≤ 0.25
181 | GGTK | ≤ 0.25
182 | FCPQ | 0.422
183 | LFRV | ≤ 0.25
184 | QQMH | ≤ 0.25
185 | SMWW | ≤ 0.25
186 | YYYM | ≤ 0.25
187 | FQQK | ≤ 0.25
188 | WPIV | 0.674
189 | IIPE | ≤ 0.25
190 | PETP | ≤ 0.25
191 | MVLE | ≤ 0.25
192 | SMVW | 1.49

Row | Variant | enrichment ratio
193 | AIMD | 2.31
194 | SYGQ | ≤ 0.25
195 | IQEL | ≤ 0.25
196 | ACMS | 8.75
197 | GKYG | ≤ 0.25
198 | GHLM | ≤ 0.25
199 | PHMF | ≤ 0.25
200 | IMVS | ≤ 0.25
201 | RDFE | ≤ 0.25
202 | QPLR | ≤ 0.25
203 | LKWE | ≤ 0.25
204 | YMHR | ≤ 0.25
205 | IPYE | ≤ 0.25
206 | LWVA | ≤ 0.25
207 | PCVY | ≤ 0.25
208 | LDDC | ≤ 0.25
209 | LMDP | ≤ 0.25
210 | MPAA | ≤ 0.25
211 | SWLP | ≤ 0.25
212 | DSWI | ≤ 0.25
213 | PIKW | ≤ 0.25
214 | KQMW | ≤ 0.25
215 | PYIC | ≤ 0.25
216 | PAEQ | ≤ 0.25

Row | Variant | enrichment ratio
217 | DRLS | ≤ 0.25
218 | ISAE | ≤ 0.25
219 | APNY | ≤ 0.25
220 | DQHK | ≤ 0.25
221 | YMRT | ≤ 0.25
222 | WPER | ≤ 0.25
223 | RTQT | ≤ 0.25
224 | HAFC | ≤ 0.25
225 | WPHF | ≤ 0.25
226 | FKHC | ≤ 0.25
227 | DQHY | ≤ 0.25
228 | GGEL | ≤ 0.25
229 | ENIN | ≤ 0.25
230 | ELIS | ≤ 0.25
231 | IVAL | ≤ 0.25
232 | GPNK | ≤ 0.25
233 | YHHA | ≤ 0.25
234 | TTYE | 0.712
235 | ELHW | ≤ 0.25
236 | VIFQ | ≤ 0.25
237 | PVFA | ≤ 0.25
238 | PQAW | ≤ 0.25
239 | PGYK | ≤ 0.25
240 | HECS | 2.84

Row | Variant | enrichment ratio
241 | MENG | ≤ 0.25
242 | PHGA | ≤ 0.25
243 | KVYC | ≤ 0.25
244 | PSSQ | ≤ 0.25
245 | YKIC | ≤ 0.25
246 | PQTC | ≤ 0.25
247 | YWYH | ≤ 0.25
248 | MFFF | ≤ 0.25
249 | AYKW | ≤ 0.25
250 | IICE | ≤ 0.25
251 | VGFA | ≤ 0.25
252 | RVQI | ≤ 0.25
253 | RASM | ≤ 0.25
254 | QLAH | ≤ 0.25
255 | IMFD | ≤ 0.25
256 | WHTM | ≤ 0.25
257 | VFNY | ≤ 0.25
258 | IAKE | ≤ 0.25
259 | QWPR | ≤ 0.25
260 | NHWD | ≤ 0.25
261 | LIRP | ≤ 0.25
262 | YCVY | ≤ 0.25
263 | RMWF | ≤ 0.25
264 | FQDQ | ≤ 0.25

Row | Variant | enrichment ratio
265 | LPYF | ≤ 0.25
266 | HSHI | ≤ 0.25
267 | QGTV | 0.483
268 | GTFA | ≤ 0.25
269 | FNDH | ≤ 0.25
270 | FNTC | ≤ 0.25
271 | GHHR | ≤ 0.25
272 | MGLK | ≤ 0.25
273 | QDHF | ≤ 0.25
274 | LIKY | ≤ 0.25
275 | RSDH | ≤ 0.25
276 | NQSR | ≤ 0.25
277 | AFMD | ≤ 0.25
278 | YNMN | ≤ 0.25
279 | YFGF | ≤ 0.25
280 | RETC | ≤ 0.25
281 | MQVK | ≤ 0.25
282 | NNTP | ≤ 0.25
283 | YMMF | ≤ 0.25
284 | YLHT | ≤ 0.25
285 | YHYS | ≤ 0.25
286 | HMTR | ≤ 0.25
287 | FWKT | ≤ 0.25
288 | NIER | ≤ 0.25

Row | Variant | enrichment ratio
289 | KHNM | ≤ 0.25
290 | FEPP | ≤ 0.25
291 | VLAY | ≤ 0.25
292 | QCAN | ≤ 0.25
293 | TTSA | 11.5
294 | TYWD | ≤ 0.25
295 | LDKN | ≤ 0.25
296 | WPKD | ≤ 0.25
297 | PSPC | ≤ 0.25
298 | QRHQ | ≤ 0.25
299 | GDTK | ≤ 0.25
300 | QSYP | ≤ 0.25
301 | GKTQ | ≤ 0.25
302 | EDDP | ≤ 0.25
303 | VQDS | ≤ 0.25
304 | LRRC | ≤ 0.25
305 | IDTF | ≤ 0.25
306 | DPKS | ≤ 0.25
